Laboratory results reported in the supplement of paper PMC11417369.
± gives the standard deviation of the averaged measurements. This is one part of the list.

tested on: PfAP2-G AP2 domain (GST-tagged); test: gcPBM binding intensity (ln(normalized median fluorescence intensity)); higher = stronger DNA binding
How it was run: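 GST-fused DNA-binding domains of P. falciparum, expressed in E. coli, were applied at about 25 μg on average for 1 h to an Agilent 4 × 180k array of primer-extended double-stranded 36-bp intergenic genomic probes and negative controls. Binding intensity is the highest Masliner-normalised natural-log median intensity across replicate spots of either probe orientation, measured with Alexa488 anti-GST antibody and a 488 nm scan.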

Row | Sequence | gcPBM binding intensity (ln)
1 | ATATTGTATTTATGTACACACATTTTTGGAATATGA [CACACA_site4861] | 11.6 ± 0.92
2 | TTTTTTCTCTGTGGCTGTACTTTGAAGATATTTTAT [XGTACX_site8243] | 11.1 ± 0.55
3 | TTTTTTACTTTTGAGACATTTCATATTTTTATTCAC [GTGCAC_negctrl_site730] | 10.02 ± 0.049
4 | TACAGGAATATTTTTACACACTAAAAATTATAAAAT [CACACA_site1649] | 10 ± 0.15
5 | TGATTGAGTAAAATGGGTACATATACACTATTACAT [XGTACX_site5232] | 11.2 ± 0.67
6 | AGTATAAAAATATATTTACACACTATATATATCGAA [CACACA_site8494] | 9.87 ± 0.11
7 | ATATGTTACAGACACACACACACATAAAAAAACAAA [CACACA_site3248] | 10.2 ± 0.26
8 | TATTGTTGTTCATGTACACACTATAATAAAAGCAAT [CACACA_site6148] | 11.5 ± 0.73
9 | TAAAATATATATATGTGTACATAACATATAATTTTT [XGTACX_site1725] | 11.4 ± 0.91
10 | TTATTTAGTATATTATGTACATACAATGCCTGGGAA [XGTACX_site4578] | 11.2 ± 0.72
11 | TTTTCATATTATAGTGCACACAAAAATATATATATG [CACACA_site8929] | 10.6 ± 0.45
12 | AATAATCTATATTGTACACACAAAATGGGAAAAAAA [CACACA_site6969] | 11.5 ± 0.92
13 | AATTAGATTTACTGAAGTACTTAATTTATTTTATTA [XGTACX_site3407] | 11.1 ± 0.56
14 | ACCCCCAATACGGAAACACACAAGTTATTTTATCAT [CACACA_site8874] | 10.9 ± 0.4
15 | AGGTACTTTTTTAAAACACACATATAACATATACAC [CACACA_site6629] | 11.3 ± 1.1
16 | AAAAAAAAATACTACTGTACTTTTTTTGGACATCTA [XGTACX_site1096] | 11.6 ± 1
17 | TGATTATACGCACGCGCACACACAACCAAAAAAAAA [CACACA_site3537] | 10.8 ± 0.66
18 | TGTTTATTTTTAAAAAGTACATATATAAAAAATATC [XGTACX_site4902] | 11.4 ± 0.98
19 | ATAATTTGGAAACACACACACACACCCACATATATA [CACACA_site2286] | 10.3 ± 0.34
20 | TTAAATGAAAAATGGGGTACATATATACAAATATAT [XGTACX_site5931] | 11.5 ± 0.95
21 | AAATACTTGTCATATTGTACATGTTTGTGATATATA [XGTACX_site3185] | 10.8 ± 0.58
22 | GTTAAGAATATATAATGTACTTATTTTAATATAGTA [XGTACX_site6088] | 11.1 ± 0.84
23 | AAAAAAGGAAAAGATACACACCGTAAATTAAAATTT [CACACA_site5908] | 9.87 ± 0.11

Row | Sequence | gcPBM binding intensity (ln)
24 | GAAGGAATATACAATTGTACTTGGCAAAAAAAAAAA [XGTACX_site1884] | 11 ± 0.7
25 | ATATATTTATATATTACACACAATATTGTACAGATA [CACACA_site8215] | 11.2 ± 0.73
26 | ATATATCATAATAGAGGTACACATATTATATATATA [XGTACX_site782] | 11.3 ± 0.86
27 | TTTATAAATATATATACACACACATATATATTATAT [CACACA_site8099] | 9.9
28 | ATATTAAATATAATTTGTACGCATTTTTTTTTTTTT [XGTACX_site1910] | 11.5 ± 0.82
29 | TAAAATATAATAAAATGTACACGCATGCAATAGAAT [XGTACX_site7434] | 11.3 ± 0.61
30 | GCTTCTTAGTATACTTTATAAAATATATATTAAATA [XGTACX_negctrl_site57] | 10.1 ± 0.3
31 | ATATCGGGTGCATTAACACACATTTATTTGAATAAA [CACACA_site2350] | 10.3 ± 0.42
32 | AGCATTTTTCATTTTGCACACATGTTTTATGTGTAT [CACACA_site3454] | 10.1 ± 0.021
33 | AATTATAATTAATAGAGTACTGAATATATATATATA [XGTACX_site8683] | 10.9 ± 0.71
34 | TTCCCTTTTTTTATTTGTACTTATCTTTTAAATAAT [XGTACX_site2497] | 11.2 ± 0.67
35 | GATGATAAAATATGTACACACAGTTTATACATTTTG [CACACA_site4055] | 11.3 ± 0.76
36 | AATATTACAAAATATTGTCCGTACAAATTTTTAATA [XGTACX_site8129] | 11.4 ± 0.81
37 | AAAAAAAAAAAAAAGACACACATATATATATATATA [CACACA_site633] | 10.1 ± 0.16
38 | TTTAGATATATGGTAGTGCATAATAAAAATATAGCC [GTGCAC_site9449] | 10.4 ± 0.26
39 | CACTCCATATTATACACACACACAAATGAAAAAAAT [CACACA_site3019] | 10.2 ± 0.34
40 | ATATACATATATATGGGTACATATATTAATATATAT [XGTACX_site8358] | 11.1 ± 0.81
41 | TTAACATATTATAAGTGTACATATTTATAAACAAGA [XGTACX_site8806] | 11.4 ± 0.8
42 | ATTTTGAAAAATAAAAGTACATATAATATATCTACA [XGTACX_site7185] | 11.2 ± 0.88
43 | TCTGTTAATATTTATACACACATATTTATTTATATA [CACACA_site6658] | 9.955 ± 0.049
44 | TATATTGAATGCAAAAGTACATTTGTGTAAATTTAT [XGTACX_site7611] | 11 ± 0.5
45 | ACTACATTATTGCATTGTACTTTTTTTTTTTTTTTA [XGTACX_site4605] | 11.4 ± 0.85
46 | TTAAAAATTATATAAGTGCATTAATATTTAGAACAA [GTGCAC_site9773] | 10.2 ± 0.47

Row | Sequence | gcPBM binding intensity (ln)
47 | AAAATATATTAAGGCACACACATACATATATATATA [CACACA_site3723] | 10.2 ± 0.31
48 | GAGTTAATATTTAAAAGTACAAGATGAATGTAAAAA [XGTACX_site5810] | 11.3 ± 0.78
49 | TTTTTGTATTCTACCTTAACAATCTTAAAGATTTTT [CACACA_negctrl_site1157] | 9.97 ± 0.11
50 | TTTTTTTTTTTAAAATGTACACGTAATTACATATAT [XGTACX_site752] | 11.4 ± 0.95
51 | TGATGGTTACGTTTATGTACACATTACAGTTAGTAT [XGTACX_site998] | 11.6 ± 1.2
52 | TTAAAAATATATGAATGTACATATATTTATATATAT [XGTACX_site77] | 10.8 ± 0.52
53 | TACTTACCAAAATACACACACACACCCAATATATAA [CACACA_site1871] | 10.3 ± 0.2
54 | TATATATTATTTAAAACACACAAAAAAAAAAATTAT [CACACA_site89] | 9.895 ± 0.021
55 | TTTTTTTTATTAGTGTGTACGCATTTATTTATACAT [XGTACX_site1599] | 11.7 ± 0.88
56 | TTTAAATTATGAAATTGTACATATAAAAATATTTTA [XGTACX_site4796] | 10.9 ± 0.54
57 | TATATAAACATACATACACACATACAATAAGTAAAA [CACACA_site5118] | 10.2 ± 0.28
58 | CACCCACTAATAAACACACACATATATATATATATA [CACACA_site389] | 10.2 ± 0.33
59 | ATTTTTTTTATTCAATGTACTTTTTTTTATATATAT [XGTACX_site4978] | 11.5 ± 0.86
60 | TACAAAATATATATGACACACATAAAAAAAAGTATA [CACACA_site1373] | 10.2 ± 0.18
61 | TTTAAAAATGCTACATGTACAAAATAAAATATAATA [XGTACX_site2905] | 11 ± 0.53
62 | ATATATATATATAAAAGTACATGCTTATATATATAT [XGTACX_site3786] | 11.2 ± 0.97
63 | AAGTTTATCACAGCCACGCACACATAATATATGTAT [CACACA_site3670] | 10.1 ± 0.071
64 | AATAAAATGAGATGTTGTACAGTTTTGATATATGCA [XGTACX_site3052] | 11.2 ± 0.61
65 | ATTGTTCTATGATTTGTACACACTTTTTTTTAAAAT [CACACA_site2825] | 11.5 ± 0.88
66 | ACCTAAGAACTATTTACACACATATACAAAATATAT [CACACA_site2459] | 10.2 ± 0.19
67 | AAACGTACATAATACACACACATGTATCCATATAAA [CACACA_site5173] | 11.4 ± 0.94
68 | CATATAAAAATATGCACACACAGGAATACAAACATA [CACACA_site684] | 10.4 ± 0.13
69 | AATAAAAAACTACAATATACAAAATTATTAAATCAA [GTGCAC_negctrl_site703] | 9.56 ± 0.35

Row | Sequence | gcPBM binding intensity (ln)
70 | TGAACTCACGAGCACACACACACATATATATATATA [CACACA_site8248] | 10.3 ± 0.18
71 | ATATATATATATATATGTACACATATATGTGTTTGT [XGTACX_site62] | 11.4 ± 0.88
72 | TTAATAAACCTTAGATGTACAGTTATATATAAAATA [XGTACX_site6681] | 11.2 ± 0.78
73 | AGCAATTGTGTTTTCACACATAAATATATTCCTCAC [CACACA_site5021] | 9.88 ± 0.13
74 | AATTAAACTCACACCACACACAAAAAAAAAAAAAAA [CACACA_site693] | 10 ± 0.59
75 | GGTCATATTTTTTGCACACAAAAAAAAATATAAAAT [CACACA_site3381] | 10.3 ± 0.2
76 | ATATATATTTTTTAATGTACTTATATTTTTATAATA [XGTACX_site2103] | 11.4 ± 0.79
77 | ATACAATAAAGGTGTACACATATATGATGCAAGATG [CACACA_site5897] | 11.7 ± 0.93
78 | TATTCAGGTCCAATGGTGCAATATATTTTTGTAATA [GTGCAC_site9607] | 10.5 ± 0.47
79 | TAAAAAATAAAATGGACACACACGTTCAAATTTAGA [CACACA_site2083] | 10.8 ± 0.49
80 | GTATGTATGTATGTATGTACTTATGTAGTCTTAGTT [XGTACX_site1710] | 11.3 ± 0.85
81 | AGTGTAGGTATATAAACACACATACAGATATATAAT [CACACA_site4900] | 10.2 ± 0.15
82 | TGTTTATGTATCAATTGTACAAAAAAAAAAAAAAAA [XGTACX_site1590] | 10.8 ± 0.8
83 | TTCAAAAAAATGTATACACACATAAGTATAATATAA [CACACA_site3758] | 10.08 ± 0.057
84 | GATTTTTTTTTTTTTTCACACACTAATAATATTATC [CACACA_site464] | 9.9
85 | TTCAAATATTTTATTTGTACATAAAAAAGAAAGTTA [XGTACX_site8287] | 11 ± 0.68
86 | TAGGAAGAATTACTGTGTACTAAAATATTAAAAAGT [XGTACX_site4909] | 11.4 ± 0.88
87 | CTTATGTGCATACCTACACACTTACAGATATATATA [CACACA_site5622] | 10.2 ± 0.24
88 | ACTTACCCATTTATTACACACATAAAGGAAAATTTT [CACACA_site4873] | 10.4 ± 0.23
89 | TGTAAATAATATAATAGTACGCATATTTTTATTGAA [XGTACX_site284] | 11.4 ± 0.78
